Source: patent publication US20210134388A1, “Hyperstable Constrained Peptides and Their Design” (University of Washington, priority 2016, published 2021)
“Also recorded” adds a separate entry of the source. For part of its entries the source gives two or more results. The list is limited to them. An entry can have further records. The values listed for one entry seem to repeat one measurement (runs, samples, wells or individuals). Records carry a tag for their origin. A, B and so on number the origins entry by entry. Positions of bridges follow the written chain, without caps; N, C: chain ends. Non-standard residues stand in square brackets, D forms with d.

Experiment: NMR secondary 1Hα chemical shifts at a range of temperatures
Type: physicochemical
Settings: NMR spectra at 25° C., 55° C., 75° C.; listed as NC_HLHR_D1
Method: FIG. 19: Secondary ^1Hα chemical shifts at a range of temperatures for peptide NC_cHLHR_D1 (SEQ ID NO:09). NMR spectra were collected at 25° C. (black bars), 55° C. (blue bars), 75° C. (red bars), and again after cooling to 25° C. (green bars).
Each non-canonical peptide (1 mg) was dissolved in […] of 10% D20/90% H2O or 100% D2O (˜pH 4). NMR spectra were recorded at 298K on a Bruker Avance-600 spectrometer. Two-dimensional NMR experiments included TOCSY with an […] MLEV-17 spin lock, NOESY (200 ms mixing time), ECOSY, as well as natural-abundance ^13C and ^15N HSQC. Solvent suppression was achieved using excitation sculpting. Spectra were processed using Topspin 2.1 then analyzed using CcpNmr Analysis. Chemical shifts were referenced to internal 2,2-dimethyl-2-silapentane-5-sulfonate (DSS).

NPELQRKCKELdTRpeaerkcreeSD (cyclo(NPELQRKCKEL[dD]TR[dP][dE][dA][dE][dR][dK][dC][dR][dE][dE]SD); disulfide 8-21 (inferred)) [NC_cHLHR_D1]
change of secondary 1Hα chemical shifts (secondary structure) on heating: no change from 25 °C (black) to 75 °C [passage A]; also recorded: no significant change on heating to 75 °C [passage B]
